Earlier results, collected in paper PMC3207004 (Clinical cancer research : an official journal of the …, 2011).

Settings: canine model; reports, no reference given; cited from earlier work

## CC1(C)CC(=O)c2c(C(F)(F)F)nn(-c3ccc(C(N)=O)c(N[C@H]4CC[C@H](OC(=O)CN)CC4)c3)c2C1 [PF-04929113]
  Retinal damage in animal studies: potential of PF-04929113 to induce irreversible retinal damage
